Hit rate of the full screen: of about 410,000 compounds, about 5,000 (1.2%) were called active. The inconclusive results got no clear call from the source; some entries with a clear call stand among them for comparison. The call rests on the fitted dose curve; in most records, active means well fitted inhibition curve with a large enough effect; inconclusive means small, poorly fitted or top-dose-only effect; inactive means no such curve, though single readings can be large or run the other way. Where the call is inconclusive, the potency comes from a doubtful curve fit.
Experiment: qHTS for Inhibitors of TGF-b; further: nearly all actives have a fitted effect of over 65% in size
Conditions: HepG2 CAGA-GFP TGF-b/SMAD3 reporter, GFP fluorescence, 18 h, TGF-beta stimulated, 500 pg/mL final; series mostly up to 46.1 µM; activity, negative = inhibition: at the top concentration
Summary of the method: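 Inhibition was scored as loss of TGF-beta-induced (500 pg/mL final, 18 hours, 37 degrees C) GFP in HEPG2 cells carrying a CAGA-GFP reporter, in DMEM with 1% FBS. Well GFP was summed per cell; Activity was normalised to unstimulated and stimulated DMSO wells, then concentration-response fitting.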
On the % scale 0 is the no-effect control and ±100 the full control effect; potency means the concentration at half of the fitted maximal effect; tags describe the fitted curve by direction and shape.

| SMILES | activity, negative = inhibition | Potency |
| --- | --- | --- |
| Cc1ccccc1N(CC(=O)NCC1CCCO1)C(=O)CNS(=O)(=O)c1ccc(F)cc1 (configuration not stated) | inactive: -3.59% |  |
| O=S(=O)(Nc1nc(-c2ccccc2)cs1)c1cc(Cl)ccc1Cl |  | inconclusive: 35.5 µM [inhibitor, single point] |
| NC(=O)c1nsc(C(=O)N(c2ccccc2F)C(C(=O)NCc2ccc(F)cc2)c2ccc(O)cc2)c1N (configuration not stated) |  | inconclusive: 17.8 µM [inhibitor, single point] |
| Clc1cccc(Cc2c(-c3ccccc3)nc3c4ccccc4ccn23)c1 |  | inconclusive: 35.5 µM [inhibitor, single point] |
| CCN(CC(=O)Nc1ccc2c(c1)OCCO2)Cc1nc2cc(Cl)ccc2c(=O)[nH]1 |  | inconclusive: 35.5 µM [inhibitor, single point] |
| COc1ccc(CN2CCC(C(=O)c3ccc(Cl)cc3)CC2)cc1 | inactive: 0.354% |  |
| COc1cc2cnc(-c3ccccc3)c(-c3cc(OC)c(OC)c(OC)c3)c2cc1OC | inactive: -7.14% |  |
| COc1cccc(-c2nc(CS(=O)(=O)CC(=O)N3CCN(c4ccccn4)CC3)c(C)o2)c1 |  | inconclusive: 22.4 µM [inhibitor, single point] |
| COc1cc2sc3ccc(C#Cc4ccc(N)cc4)cc3c(=O)c2cc1OC |  | inconclusive: 12.6 µM [inhibitor, single point] |
| CNC(=O)c1ccsc1NC(=O)c1ccc(S(=O)(=O)N2CCCc3ccccc32)cc1 |  | inconclusive: 35.5 µM [inhibitor, single point] |
| CS(=O)(=O)N(Cc1ccccc1)c1ccc(C(=O)Nc2cccc(Cl)c2)cc1 |  | active: 15.8 µM |
| O=C(Nc1ccc(Br)cc1)c1csc(-c2ccncc2)n1 |  | inconclusive: 35.5 µM [inhibitor, single point] |
| COc1ccc(Cn2ccc3nc(C)c(C(=O)N4CCN(c5cccc(OC)c5)CC4)cc3c2=O)cc1 |  | inconclusive: 35.5 µM [inhibitor, single point] |
| COc1ccc(NC(=O)c2c(NC(=O)C(F)(F)F)sc3c2CCCCC3)cc1 |  | inconclusive: 35.5 µM [inhibitor, single point] |
| CC1CC(C)CN(C(C(=O)NC2CCCCC2)c2ccnc3ccccc23)C1 (configuration not stated) |  | inconclusive: 35.5 µM [inhibitor, single point] |
| N=C1/C(=C\c2ccc(OC(=O)c3ccccc3)cc2)C(=O)N=C2SC(N3CCOCC3)=NN12 | inactive: -26% |  |
| COc1ccc(OC)c(S(=O)(=O)N2CCCCC2C(=O)N2CCN(c3ccccn3)CC2)c1 (configuration not stated) | inactive: 1.64% |  |
| O=C(Cc1csc(Nc2nc(=S)[nH]c3ccccc23)n1)NCCCN1CCN(c2cccc(Cl)c2)CC1 |  | inconclusive: 35.5 µM [inhibitor, single point] |
| COc1ccc(CN2CCc3c(c(=O)n4ncc(C(=O)N5CCN(c6ccccc6F)CC5)c4n3C)C2)cc1 |  | inconclusive: 6.31 µM [inhibitor, partial curve] |
| Cc1cccc(C)c1OCC(=O)Nc1ccccc1N1CCCCC1 |  | inconclusive: 35.5 µM [inhibitor, single point] |
| CCc1ccc(NC(=O)CSc2nnc3[nH]c(=O)cc(-c4ccccc4)n23)cc1 | inactive: -3.49% |  |
| CC(=O)c1cccc(NC(=S)NCCCCc2ccccc2)c1 |  | inconclusive: 35.5 µM [inhibitor, single point] |
| Cc1cccc(CN2CCN(C3CN(Cc4ccc(F)cc4)S(=O)(=O)C3)CC2)c1 (configuration not stated) | inactive: 0.466% |  |

| SMILES | activity, negative = inhibition | Potency |
| --- | --- | --- |
| O=S(=O)(NCc1ccco1)c1ccc(Cl)nc1 |  | inconclusive: 11.2 µM [inhibitor, partial curve, poor fit] |
| CCCS(=O)(=O)N1CC(=O)N(c2cccc(F)c2)C(C)(C(=O)NC2CCCCCC2)C1 (configuration not stated) | inactive: 0% |  |
| CCN(C(=O)CCc1nc(-c2ccc(C)cc2)no1)c1cccc(C(F)(F)F)c1 |  | inconclusive: 10 µM [inhibitor, partial curve, poor fit] |
| CCCCNC(=O)C1CCN(S(=O)(=O)N2CCCCCC2)CC1 | inactive: -1.95% |  |
| CN(C)c1ccc(/C=N/NC(N)=S)cc1[N+](=O)[O-] | inactive: 0% |  |
| O=C(NCc1cc(Br)cc(Br)c1OC(=O)c1ccccc1[N+](=O)[O-])c1ccccc1 |  | inconclusive: 35.5 µM [inhibitor, single point] |
| Cc1ccc(/C=C2/C(=N)N3N=C(CC(=O)N4CCCC4)SC3=NC2=O)o1 |  | inconclusive: 35.5 µM [inhibitor, single point] |
| CC(C)c1ccc(C(=O)NNC(=O)c2ccncc2)cc1 | inactive: -17.2% |  |
| Cc1cccc(CNC(=O)c2ccccc2NC(=O)C2=CSCCO2)c1 |  | inconclusive: 3.98 µM [inhibitor, single point] |
| NNc1nc2c(Cl)c(Cl)ccc2s1 |  | inconclusive: 22.4 µM [inhibitor, single point] |
| O=C(Cc1ccccc1)N/N=C/c1cc2c(cc1Cl)OCO2 |  | inconclusive: 3.98 µM [inhibitor, full curve, poor fit] |
| CCS(=O)(=O)Nc1ccc(C2=NN(C(=O)c3ccco3)C(c3ccco3)C2)cc1 (configuration not stated) |  | inconclusive: 14.1 µM [inhibitor, single point] |
| c1ccc(C2[C@H]3CN(Cc4cccnc4)[C@H](c4ccccc4)C34CC2(c2cccnc2)C4)cc1 (some centres not stated) |  | active: 14.1 µM |
| CCCCC(CCCC)c1ccc(C=Nc2ccc(/C=C/c3ccnc4ccccc34)cc2)cc1 | inactive: -15.9% |  |
| C/C(=C1/C=Nc2ccccc21)c1ccc(N(C)C)cc1 |  | inconclusive: 22.4 µM [inhibitor, single point] |
| COc1ccc(C(=O)NCCc2ccccc2)cc1OC | inactive: 24.3% |  |
| COc1ccccc1CC1(C)C(=O)Nc2ccc(OC(F)(F)F)cc21 (configuration not stated) |  | active: 20 µM |
| COc1ccc(C)cc1NC(=O)N1CCN(S(=O)(=O)c2ccc3c(ccn3C)c2)CC1 | inactive: -9.65% |  |
| CCc1ccc(C2(O)CC(C(F)(F)F)=NN2C(=O)Cc2ccc([N+](=O)[O-])cc2)cc1 (configuration not stated) |  | inconclusive: 14.1 µM [inhibitor, partial curve, poor fit] |
| COc1ccc(-n2cc(-c3ccccc3)c3c(N4CCN(CCO)CC4)ncnc32)cc1 |  | inconclusive: 35.5 µM [inhibitor, single point] |
| CCN(CC)S(=O)(=O)c1ccc(NN)nc1 | inactive: 1.53% |  |
| Cc1ccccc1CSc1nnc(-c2cccs2)n1Cc1ccco1 |  | inconclusive: 7.08 µM [inhibitor, partial curve] |
| CNC(=O)COc1ncnc2sccc12 | inactive: 3.35% |  |

| SMILES | activity, negative = inhibition | Potency |
| --- | --- | --- |
| O=C(Nc1cccc(/C=C/c2ccccn2)c1)c1ccc(-n2cncn2)c([N+](=O)[O-])c1 |  | inconclusive: 35.5 µM [inhibitor, single point] |
| COc1ccc(CN2CCCC(CO)(Cc3ccc(F)cc3)C2)cc1C (configuration not stated) | inactive: -10.4% |  |
| O=S(=O)(NCc1ccccc1Cl)c1ccc(-n2cccn2)cc1 |  | inconclusive: 15.8 µM [inhibitor, single point] |
| O=C(Nc1cc(Cl)ccc1Oc1ccccc1)C1=COCCO1 |  | inconclusive: 3.16 µM [inhibitor, single point] |
| CCOc1ccc(Nc2oc(-c3ccccc3Cl)nc2C#N)cc1 | inactive: 15.7% |  |
| CCn1c2c(c(=O)n3ncc(C(=O)Nc4cc(Cl)ccc4OC)c13)CN(Cc1ccc(OC)cc1)CC2 |  | inconclusive: 7.08 µM [inhibitor, partial curve, poor fit] |
| Cc1ccc(Cn2cccc(NC(=O)NCc3ccccc3)c2=O)cc1 |  | inconclusive: 3.16 µM [inhibitor, full curve] |
| Cc1ccc(C)c(CC(=O)N2CCCC(c3cc(C(=O)Nc4ccccc4Cl)no3)C2)c1 (configuration not stated) |  | inconclusive: 14.1 µM [inhibitor, single point] |
| C[C@H](CO)N1C[C@H](C)[C@@H](CN(C)S(=O)(=O)c2ccccc2F)Oc2ncc(C#Cc3cccnc3)cc2C1=O | inactive: -8.09% |  |
| Cc1cccc(NC(=O)CSc2nc3ccc(NC(=O)COc4ccccc4C)cc3s2)c1 |  | inconclusive: 10 µM [inhibitor, single point] |
| Cc1cc(C)cc(C(=O)OCC(=O)Nc2cccc(S(=O)(=O)NC3=NCCCCC3)c2)c1 |  | inconclusive: 3.16 µM [inhibitor, single point] |
| COc1cc(C)nc(Oc2ccc(=O)[nH]n2)n1 |  | inconclusive: 35.5 µM [inhibitor, single point] |
| Cc1c(NC(=O)C(C)OC(=O)/C=C/c2ccccc2)c(=O)n(-c2ccccc2)n1C (configuration not stated) | inactive: 2.28% |  |
| COc1cc(-c2nc3ccccn3c2NCc2ccccc2)ccc1SC1CCCCC1 |  | inconclusive: 17.8 µM [inhibitor, single point] |
| O=C(NNC(=O)c1cc(-c2ccccc2)nc2ccccc12)Nc1cccc(Cl)c1 |  | inconclusive: 35.5 µM [inhibitor, single point] |
| N#C/C(=C\C=C\c1ccccc1)C(=O)NCc1ccco1 |  | inconclusive: 25.1 µM [inhibitor, single point] |
| O=C(CN1C(=O)COc2ccc(S(=O)(=O)NC3CCCC3)cc21)NCc1ccc(Cl)cc1 |  | inconclusive: 12.6 µM [inhibitor, partial curve] |
| CCN(CC)CCNC(=O)c1ccc(NC(=O)Cc2ccc(OC)c(S(=O)(=O)N3CCOCC3)c2)cc1 | inactive: 15.1% |  |
| CCOc1ccc(/C=N/NC(=O)c2cc3c(OC)cc(OC)cc3[nH]2)cc1OC | inactive: 3.52% |  |
| CCc1cc(C(=O)N=Nc2c(O)[nH]c3ccc([N+](=O)[O-])cc23)c2ccccc2n1 |  | inconclusive: 22.4 µM [inhibitor, single point] |
| CC(OC(=O)Cn1[nH]c(=O)c2ccccc2c1=O)C(=O)Nc1ccccc1[N+](=O)[O-] (configuration not stated) |  | inconclusive: 3.55 µM [inhibitor, partial curve, poor fit] |

— PubChem BioAssay AID588855 (National Center for Advancing Translational Sciences (NCATS), 2011)
